Assay results reported in a collection of fitness landscapes (doi:10.1016/j.celrep.2020.107928).
Whole data set: some 81,000 sequences, median “one-hybrid fitness for binding parS DNA” near -0.17, cut for the highest 2% near 0.51. Some of the results follow.

B1: Caulobacter ParB omega fusion; a variant is named by its letters at X, in order, B8GW30 (parent)
chain: MESVVVGEPGMSEGRRGLGRGLSALLGEVDAAPAQAPGEQLGGSREAPIEILQRNPDQPRRTFREEDLEDLSNSIREKGVLQPILVRPSPDTAGEYQIVAGERAWRAAQRAGLKTVPIMVRELDDLAVLEIGIIENVQRADLNVLEEALSYKVLMEKFERTQENIAQTIGKSXSHVANXMRLLXLPDEVQSYLVSGELTAXHARAIAAAADPVALAKQIIEGGLSVRETEALARKAPNLSAGKSKGGRPPRVKDTDTQALESDLSSVLGLDVSIDHRGSTGTLTITYATLEQLDDLCNRLTRGI

Variants of: B1
Assay: one-hybrid fitness for binding parS DNA (scaled: cognate 1, non-cognate 0); higher = stronger binding
Conditions: with parS DNA site
Summary of the method: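 Caulobacter ParB libraries with four specificity codons randomised were screened by bacterial one-hybrid selection in the E. coli USO strain, using a HIS3 reporter whose site lies 19 bp from the promoter. Selection ran for 48 hours at 37°C on M9 lacking histidine, with 0.1 mM IPTG and 5 mM 3-AT. Plasmids were Illumina-sequenced before and after selection, three replicate libraries were pooled, and variants with under 10 reads were dropped. Fitness is the log change in each variant's read ratio to wild type, rescaled against the cognate and non-cognate sites.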

Variant | one-hybrid fitness for binding parS DNA
WLHR | ≤ 0.2
SVGG | ≤ 0.2
FRPG | ≤ 0.2
GFHS | ≤ 0.2
PHHN | ≤ 0.2
GMFS | ≤ 0.2
CVFI | ≤ 0.2
YNGT | ≤ 0.2
RWYA | 0.348
AYFT | ≤ 0.2
PVIR | ≤ 0.2
QNYW | ≤ 0.2
NMKF | ≤ 0.2
EPFS | ≤ 0.2
AARK | ≤ 0.2
LNIS | ≤ 0.2
FCKT | ≤ 0.2
IFAG | ≤ 0.2
KRMT | ≤ 0.2
GRTN | ≤ 0.2
DQSC | ≤ 0.2
LTSI | ≤ 0.2
NAQA | ≤ 0.2
HKTV | ≤ 0.2
LSTV | ≤ 0.2

Variant | one-hybrid fitness for binding parS DNA
EHNT | ≤ 0.2
HSGF | ≤ 0.2
PQKF | ≤ 0.2
SVDT | ≤ 0.2
IGSS | ≤ 0.2
PATF | ≤ 0.2
QNLT | ≤ 0.2
SILS | ≤ 0.2
RMSW | 0.229
QEHS | ≤ 0.2
QHFM | ≤ 0.2
RHTG | 0.967
YFHR | ≤ 0.2
GRWV | ≤ 0.2
IPLW | ≤ 0.2
RSDD | ≤ 0.2
FANN | ≤ 0.2
GISK | 0.234
QMEH | ≤ 0.2
HNYC | ≤ 0.2
HVFG | ≤ 0.2
PISQ | ≤ 0.2
REHL | ≤ 0.2
FAKW | ≤ 0.2
SAPP | ≤ 0.2

Variant | one-hybrid fitness for binding parS DNA
EGKS | ≤ 0.2
DPRW | ≤ 0.2
TRCA | ≤ 0.2
SSPL | ≤ 0.2
SFHK | ≤ 0.2
GPTL | ≤ 0.2
DAKC | ≤ 0.2
HYPS | ≤ 0.2
RFSR | ≤ 0.2
HIMS | ≤ 0.2
MPTP | ≤ 0.2
TIVC | ≤ 0.2
EAAY | ≤ 0.2
SNKH | ≤ 0.2
EWVS | ≤ 0.2
KVSM | ≤ 0.2
HWVK | ≤ 0.2
YLDS | ≤ 0.2
GFQQ | ≤ 0.2
LKRN | ≤ 0.2
VCPT | ≤ 0.2
SRWP | ≤ 0.2
EWTF | ≤ 0.2
RRLY | 0.279
RQRK | ≤ 0.2

Variant | one-hybrid fitness for binding parS DNA
KNWL | ≤ 0.2
PEIG | ≤ 0.2
RHMC | 0.908
QFIF | ≤ 0.2
ADRY | ≤ 0.2
YEAW | 0.349
ECGL | ≤ 0.2
MPEC | ≤ 0.2
MTDL | ≤ 0.2
CWVS | 0.21
PGKP | ≤ 0.2
LADG | ≤ 0.2
RNLQ | ≤ 0.2
SWEP | ≤ 0.2
VRSA | ≤ 0.2
PGPC | ≤ 0.2
DTRL | ≤ 0.2
GGPI | ≤ 0.2
SPCP | ≤ 0.2
QIGR | ≤ 0.2
TMVP | ≤ 0.2
FNAY | ≤ 0.2
PTGH | ≤ 0.2
VLTS | ≤ 0.2
ASAA | ≤ 0.2

Variant | one-hybrid fitness for binding parS DNA
IRWR | ≤ 0.2
GIQS | ≤ 0.2
ANPV | ≤ 0.2
QMTR | ≤ 0.2
WLQC | ≤ 0.2
ITIN | ≤ 0.2
RVHM | 0.314
ARSQ | ≤ 0.2
TNRY | ≤ 0.2
LGDT | ≤ 0.2
SERV | ≤ 0.2
AECV | ≤ 0.2
NCAL | ≤ 0.2
QLEN | ≤ 0.2
RWTT | 0.705
VPRD | ≤ 0.2
CSRG | ≤ 0.2
QRWD | ≤ 0.2
MNAR | ≤ 0.2
NHKA | ≤ 0.2
QDTL | ≤ 0.2
WSPV | ≤ 0.2
FIPT | ≤ 0.2
PQYC | ≤ 0.2
DMGG | ≤ 0.2

Variant | one-hybrid fitness for binding parS DNA
CCPH | ≤ 0.2
YNKG | ≤ 0.2
EYQT | ≤ 0.2
DSKG | ≤ 0.2
WRKY | ≤ 0.2
MVAR | ≤ 0.2
ESPP | ≤ 0.2
WWKT | ≤ 0.2
RNKE | ≤ 0.2
RQKF | 0.328
VMSG | ≤ 0.2
EGMA | ≤ 0.2
FIIS | ≤ 0.2
QATY | ≤ 0.2
IRVM | ≤ 0.2
RWRM | 0.31
RYFR | ≤ 0.2
RQQP | ≤ 0.2
RTRS | 0.83
PKTD | ≤ 0.2
EVNR | ≤ 0.2
QQIA | ≤ 0.2
QDNR | ≤ 0.2
ITYL | ≤ 0.2
SPRP | ≤ 0.2

Variant | one-hybrid fitness for binding parS DNA
LEAA | ≤ 0.2
YDSC | ≤ 0.2
RLRG | 0.966
RFRV | ≤ 0.2
FACW | ≤ 0.2
CLNT | ≤ 0.2
MTGR | ≤ 0.2
RPIL | ≤ 0.2
NGPL | ≤ 0.2
RDRY | ≤ 0.2
IATK | ≤ 0.2
AKPM | ≤ 0.2
EMMS | ≤ 0.2
HKMC | ≤ 0.2
QIRW | ≤ 0.2
RCRL | ≤ 0.2
RSCV | ≤ 0.2
CHTP | ≤ 0.2
WPMC | ≤ 0.2
SGDY | ≤ 0.2
LPDM | ≤ 0.2
TVHT | ≤ 0.2
YYSE | ≤ 0.2
LCAL | ≤ 0.2
PNNK | ≤ 0.2

Variant | one-hybrid fitness for binding parS DNA
EQKT | ≤ 0.2
VVYY | ≤ 0.2
WDAT | ≤ 0.2
LTHT | ≤ 0.2
SIPC | ≤ 0.2
QMNM | ≤ 0.2
AHGC | ≤ 0.2
PAFY | ≤ 0.2
ADLI | ≤ 0.2
WPCR | ≤ 0.2
NLQT | ≤ 0.2
RRAE | ≤ 0.2
GYRR | ≤ 0.2
NNQS | ≤ 0.2
LNRT | ≤ 0.2
GQVS | ≤ 0.2
QDQG | ≤ 0.2
TCVM | ≤ 0.2
WHNL | ≤ 0.2
YPFG | ≤ 0.2
